# Among all 420,000 compounds or so, about 50,000 (12%) were called active. Inconclusive means that the source gave no clear call. Such entries were picked first, then a sample of the others. Calls come from the whole dose curve; as a rule, active = well fitted inhibition curve with a large enough effect; inconclusive = small, poorly fitted or top-dose-only effect; inactive = flat fitted curve, though single readings scatter. Potencies of inconclusive entries are left out as doubtful fits.
# Test: qHTS for Inhibitors of human tyrosyl-DNA phosphodiesterase 1 (TDP1): qHTS in cells in presence of CPT; note: nearly all actives have a fitted effect of over 55% in size
# Conditions: chicken DT40 Tdp1-/-;hTDP1 cells + 20 nM CPT, ATP luminescence, 48 h; activity change, negative = growth inhibition: at 46.2 µM (top of the series) unless noted
# Procedure, shortened: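 Chicken DT40 Tdp1-/- cells complemented with human TDP1, 400 cells/well, exposed to compounds plus 20 nM camptothecin for at least 48 h at 37 C; viability read as ATP content by CellTiter-Glo luminescence.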
# % is set by controls: 0 for no effect and ±100 for the full control effect; potency is the fitted concentration of half-maximal effect; tags give direction and shape of the fitted curve.
SMILES,Potency,"activity change, negative = growth inhibition"
Cc1ccc(N=Cc2cc(Cl)cc(Cl)c2O)nc1,"inconclusive [inhibitor, single point]",
CCCN(CC(=O)Nc1ccc(F)c(F)c1F)C(=O)Cc1ccc(OC)c(S(=O)(=O)N2CCOCC2)c1,,inactive: 2.18%
COc1cc(OC)cc(C(=O)N2CCC(C(=O)Nc3ccc4c(c3)OCCO4)CC2)c1,"inconclusive [inhibitor, single point]",
Cc1c(O)ccc(-c2[nH]ncc2-c2nc3ccccc3s2)c1O,"inconclusive [inhibitor, full curve, poor fit]",
COc1cc(OC)cc(C2=Cc3ccc(OC)cc3C(CC(C)=O)N2c2ccc(-c3cncnc3)cc2)c1 (stereo not drawn),active: 8.2 µM,
Cc1ccc(S(=O)(=O)N2CCOCC2)cc1C(=O)NC1CCCC(C)C1C (stereo not drawn),"inconclusive [inhibitor, single point]",
Cc1occc1-c1nnc(SCC(=O)NC(C)(C)C)n1C(C)c1ccccc1 (stereo not drawn),"inconclusive [inhibitor, single point]",
O=C(NCc1cccnc1)c1cccc(S(=O)(=O)N2CCCCC2)c1,"inconclusive [inhibitor, single point]",
CCOC(=O)CSc1nc2ccc(NC(=O)c3ccccc3F)cc2s1,,inactive: -20.6%
COc1ccc(CCC(=O)Nc2ccc(OC)c(S(=O)(=O)N3CCCCC3)c2)cc1OC,active: 20.6 µM,
Cc1ccc(NC(=O)C2CCCN(S(=O)(=O)c3cccc4cccnc34)C2)c(C)c1 (stereo not drawn),"inconclusive [inhibitor, single point]",
COC(=O)C1=C(N)N(c2ccccc2C(F)(F)F)C2=C(C(=O)CCC2)C1c1ccc2c(c1)OCO2 (stereo not drawn),active: 23.1 µM,
COc1cccc(N(C(=O)c2nc3nccc(C)n3n2)c2nc3ccccc3s2)c1,"inconclusive [inhibitor, full curve, poor fit]",
Cc1c(CC(=O)NCCc2ccc(Cl)cc2)c(=O)oc2c(C)c3occ(C(C)(C)C)c3cc12,"inconclusive [inhibitor, single point]",
Cc1cc(C)c(OCCN(C)C)c(Cl)c1,,inactive: -1.84%
CCC(C)Sc1nc2c(c(=O)[nH]c(=O)n2C)n1CCc1ccccc1 (stereo not drawn),,inactive: -28.3%
CCCOc1ccc(/C=C2/C(=O)ON=C2C)cc1OCC,"inconclusive [inhibitor, single point]",
Cc1csc2c(N3CCC(C(=O)O)CC3)ncnc12,,inactive: -5.28%
COC(=O)c1ccc2c(=O)n(CCCCCC(=O)N3CCN(c4ccc(OC)cc4)CC3)c(=O)[nH]c2c1,"inconclusive [inhibitor, full curve, poor fit]",
COc1cccc(C2=NOC(C(=O)NCc3ccccc3)C2)c1 (stereo not drawn),active: 5.17 µM,
COc1ccc2nc3sc(C(=O)NCCN4CCc5ccccc5C4)cc3cc2c1,active: 20.6 µM,
Cc1ccc(/C=N/N2CCN(Cc3ccc(C)cc3)CC2)cc1,,inactive: 1.37%
O=S(=O)(Nc1ccccc1)c1ccc(S(=O)(=O)N2CCCC2)cc1,"inconclusive [inhibitor, single point]",

SMILES,Potency,"activity change, negative = growth inhibition"
CCOc1ccc(CNC(=O)c2ccc(Sc3ccc(Cl)cc3)c(NC(C)=O)c2)cc1OC,"inconclusive [inhibitor, single point]",
CC(=O)c1ccc(N2CCN(C(=O)COc3ccc(F)cc3)CC2)c(F)c1,"inconclusive [inhibitor, single point]",
CCC(=O)Oc1ccc2c(C)cc(=O)oc2c1C,"inconclusive [inhibitor, partial curve]",
COc1ccc(NC(=O)c2ccc(NC(=O)CSc3nc(N)cc(=O)[nH]3)cc2)cc1,"inconclusive [inhibitor, single point]",
CN(Cc1ccccc1)C(=O)c1[nH]cnc1C(=O)Nc1nccs1,"inconclusive [inhibitor, single point]",
CC(C)[n+]1ccn(C2=C([O-])c3ccccc3C(=O)/C2=N\S(=O)(=O)c2ccccc2)c1,"inconclusive [inhibitor, single point]",
Cc1onc(-c2ccccc2Cl)c1C(=O)Nc1sc2c(c1C#N)CCC2,,inactive: -28.1%
Cc1cc2nc(-c3ccc(F)cc3)c(Cc3ccsc3)n2c(C)c1Br,"inconclusive [inhibitor, partial curve]",
O=C1CN(C(=O)c2ccc(Cl)c(S(=O)(=O)N3CCc4ccccc43)c2)c2ccccc2N1,active: 16.4 µM,
CC(=O)Nc1cc(C(=O)NCc2ccco2)ccc1Sc1ccc(Cl)cc1,"inconclusive [inhibitor, partial curve]",
Oc1ccc(/C=N/Nc2nc(N3CCCCCC3)nc(N3CCCCCC3)n2)c(O)c1,"inconclusive [inhibitor, single point]",
NC1=NC[C@@H](Cc2ccc(O)cc2)N1CCc1cccc2ccccc12,active: 18.4 µM,
O=C(O[C@H]1[C@H](Cc2ccccc2)NS(=O)(=O)[C@H]2C[C@@H]3C=C[C@]12O3)c1ccccc1Br,"inconclusive [inhibitor, single point]",
COC(=O)C1=C(C)NC(C)=C(C(=O)OCCN2CCN(C(c3ccccc3)c3ccccc3)CC2)C1c1cccc([N+](=O)[O-])c1 (stereo not drawn),active: 6.68 µM,
OC(c1ccccc1)c1nc(-c2cnc3ccccc3c2)cs1 (stereo not drawn),"inconclusive [inhibitor, single point]",
CCS(=O)(=O)c1nc(S(=O)(=O)c2ccc(Cl)cc2)c(NCc2ccccc2Cl)s1,"inconclusive [inhibitor, single point]",
CC(=O)c1c(C)[nH]c(C(=O)COC(=O)Cc2ccccc2F)c1C,,inactive: -29.4%
COC(=O)c1ccc(-c2csc(NC(=O)c3ccc(S(=O)(=O)N4CCc5ccccc5C4)cc3)n2)cc1,active: 7.31 µM,
CC(C)(C)OC(=O)N1CCN(C(=O)c2[nH]cnc2C(=O)Nc2ccon2)CC1,,inactive: -2.55%
C[C@@]12C(=O)N(CC3CCCO3)CC(=O)N1[C@H]1c3ccccc3OC[C@@H]1[C@@H]2c1ccccc1 (stereo partly drawn),,inactive: -17.9%
CCCCC(=O)Nc1c(-c2ccc(OC)c(OC)c2)c(=O)c2ccccc2n1C,,inactive: -10.3%
CC(Sc1nnc2c(n1)[nH]c1ccccc12)C(=O)NC1CCCCC1 (stereo not drawn),active: 23.1 µM,
Cc1ccccc1OCCC(=O)Nc1ccc(S(=O)(=O)N(C)C2CCN(C)CC2)cc1,"inconclusive [inhibitor, single point]",

SMILES,Potency,"activity change, negative = growth inhibition"
CN(C(=O)c1cc2nc(-c3ccco3)cc(C(F)(F)F)n2n1)C1CCCCC1,"inconclusive [inhibitor, single point]",
O=C(COc1ccccc1[N+](=O)[O-])N/N=C/c1ccc(O)c([N+](=O)[O-])c1,,inconclusive: -32.3% [inhibitor]
COc1ccc(/C=C/c2ccc3ccccc3n2)cc1OC,"inconclusive [inhibitor, single point]",
CCC1CCCCN1C(=O)COC(=O)c1cc(C)nc2ccccc12 (stereo not drawn),"inconclusive [inhibitor, single point]",
CN(C)C(=O)COC(=O)c1cccc(S(=O)(=O)Nc2ccc(OCc3ccccc3)cc2)c1,,inactive: 10.6%
Cc1ccccc1N1CCN(C2CCCN(C(=O)CSc3ccccn3)C2)CC1 (stereo not drawn),"inconclusive [inhibitor, single point]",
C[C@H](NC(=O)c1cc2c(cn1)[nH]c1ccccc12)C(=O)O,"inconclusive [inhibitor, single point]",
COc1ccc(NC(=O)NC(C)c2c(-n3cccc3)sc3c2CCN(C)C3)c(OC)c1 (stereo not drawn),"inconclusive [inhibitor, single point]",
C[C@]12CC[C@@H]3c4ccc(O)cc4CC[C@H]3[C@@H]1CC[C@@H]2OC(=O)CCC(=O)O,active: 0.731 µM,
CS(=O)(=O)Nc1cccc(NC(=O)c2ccc(-c3ccc(F)c(F)c3)c3ccoc23)c1,"inconclusive [inhibitor, single point]",
Cc1nnc(NC(=O)C2CC(=O)N(Cc3ccccc3)C2)s1 (stereo not drawn),,inactive: -1.38%
CC(=O)N1CCCN(Cc2nc(C3(c4ccc(C)cc4)CCCC3)no2)CC1,,inconclusive: -32.3% [inhibitor]
O=C(NCCO)c1cn(C2CCN(Cc3c(F)cccc3Cl)CC2)nn1,,inactive: 2.65%
CC(C)(C)c1nc2ccccc2[nH]1,,inactive: -19.4%
Cc1nn2cc(-c3ccc(Cl)cc3)cnc2c1Cl,"inconclusive [inhibitor, single point]",
Nc1c(C(=O)Nc2cccc(C(F)(F)F)c2)c2ccccn2c1C(=O)c1ccccc1,"inconclusive [inhibitor, partial curve]",
CCOC(=O)[C@H]1[C@H]2COc3ccc(Cl)cc3[C@@H]2N2C(=O)c3cc(OC)ccc3NC(=O)[C@@]12C,"inconclusive [inhibitor, single point]",
OCC1CCCN(Cc2ccc(-c3ccccc3)cc2)C1 (stereo not drawn),"inconclusive [inhibitor, single point]",
Cc1cccc(-c2nn(-c3ccccc3)cc2C(=O)NCC(c2cccs2)N2CCOCC2)c1 (stereo not drawn),"inconclusive [inhibitor, single point]",
COc1cc2c(cc1CNC[C@H]1O[C@@H](n3cnc(C(N)=O)n3)[C@H](O)[C@@H]1O)OCO2,,inactive: -13.9%
O=C1/C(=C/c2ccco2)SC(=S)N1C1CCS(=O)(=O)C1 (stereo not drawn),active: 14.6 µM,
CCn1c(C)cc(C=C2C(=O)c3ccccc3C2=O)c1C,"inconclusive [inhibitor, single point]",
